Results reported in EPA's CvTdb concentration-time database.
Further values from the same series stand in other lists.

Key:
Assay in all cases: concentration in plasma after dosing
Rat [1] = details: dosed: Methyleugenol, oral
Rat [2] = details: dosed: Methyleugenol, 150 mg/kg, oral, Female, F344/N
Rat [3] = details: dosed: Methyleugenol, 150 mg/kg, oral, Male, F344/N
Rat [4] = details: dosed: Methyleugenol, 75 mg/kg, oral, Male, F344/N
Rat [5] = details: dosed: Methyleugenol, 75 mg/kg, oral, Female, F344
Rat [6] = details: dosed: Methyleugenol, 150 mg/kg, oral, Female, F344/N; remark: listed apart in the source
Rat [7] = details: dosed: Methyleugenol, 150 mg/kg, oral, Male, F344/N; remark: listed apart in the source
Rat [8] = details: dosed: Methyleugenol, 75 mg/kg, oral, Female, F344/N
Rat [9] = details: dosed: Methyleugenol, 75 mg/kg, oral, Male, F344/N; remark: listed apart in the source
Rat [10] = details: dosed: Methyleugenol, 75 mg/kg, oral, Male, F344/N; remark: listed apart in the source
Rat [11] = details: 5 min; dosed: Methyleugenol; 75 mg/kg; oral; Female; F344
Rat [12] = details: dosed: Methyleugenol, 150 mg/kg, oral, Male, F344

C=CCc1ccc(OC)c(OC)c1 [Methyleugenol]
concentration in plasma [ng/mL], Rat [1]
Details	37 mg/kg	75 mg/kg	150 mg/kg
1.5 h, Female, F344/N	–	–	2230
1.5 h, Male, F344	–	–	959
1.5 h, Male, F344/N	–	–	731
2 h, Female, F344	69	201	379
2 h, Female, F344/N	13.8	17.7	1620
2 h, Male, F344	82	508	531
2 h, Male, F344/N	–	211	–
3 h, Female, F344/N	216	48.8	–
4 h, Female, F344	–	70	260
4 h, Female, F344/N	–	64.8	1390
4 h, Male, F344	–	–	1240
4 h, Male, F344/N	–	151	393
5 h, Female, F344/N	9.6	265	855
5 h, Male, F344/N	–	118	1500
6 h, Female, F344	–	–	180
6 h, Female, F344/N	–	193	802
6 h, Male, F344	–	108	427
6 h, Male, F344/N	–	83.5	803
8 h, Female, F344/N	7.94	–	361
8 h, Male, F344/N	–	254	720
12 h, Female, F344/N	–	9.22	37.5
12 h, Male, F344/N	–	13.6	36.5
24 h, Male, F344/N	–	–	12.7

Details	concentration in plasma [ng/mL]
Rat [2], 0.25 h	1920
Rat [2], 12 h	28.8
Rat [3], 1 h	299
Rat [3], 4 h	774
Rat [4], 2 h	112
Rat [4], 20 min	193
Rat [5], 0.5 h	1810
Rat [5], 1.5 h	454
Rat [6], 4.75 h	260
Rat [6], 5 min	6290
Rat [7], 5 min	960
Rat [7], 8 h	255
Rat [8], 2 min	285
Rat [8], 3 h	242
Rat [9], 2 h	97.5
Rat [9], 5 min	4520
Rat [10], 0.5 h	766
Rat [10], 6 h	185
Rat [12], 0.25 h	2080
Rat [12], 4 h	1680

Details	concentration in plasma [ng/mL]
Rat [11]	2760
